{"source": "PubChem BioAssay AID504706", "about": "(National Center for Advancing Translational Sciences (NCATS), 2011)", "note": "In all, about 320,000 compounds went through this assay and about 200 (0.062%) were called active. This list was built around the results that the source calls inconclusive (neither active nor inactive); the mix of calls is not that of the screen. Calls come from the whole dose curve; as a rule, active = well fitted activation curve with a large enough effect; inconclusive = small, poorly fitted or top-dose-only effect; inactive = no such curve, though single readings can be large or run the other way. Potencies of inconclusive entries are left out as doubtful fits. Potency is the fitted concentration of half-maximal effect; tags give direction and shape of the fitted curve."}
{"experiment": "qHTS assay for re-activators of p53 using a Luc reporter; note: nearly all actives have a fitted effect of over 45% in size; for activity change, positive = activation: % of control where 0% means no effect", "settings": "H1299 p53-A138V BP100-luciferase reporter, luminescence, 24 h; series mostly up to 92.2 µM; activity change, positive = activation: at the top concentration", "in_short": "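p53-null H1299 cells stably carrying temperature-sensitive p53-A138V and a BP100-luciferase reporter were pinned with compounds (4-point, 1:5 series) and held 24 hrs at 37 deg C. Luminescence was read 10 min after detection reagent.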"}
{"molecule": "O=C(COc1ccccc1-c1ccccc1)c1ccccc1", "Potency": "inconclusive [activator, partial curve, poor fit]"}
{"molecule": "Cc1ccc(NC(=O)c2ccc3c(SCC(=O)O)c4c(nc3c2)CCCC4)c(Br)c1", "activity change, positive = activation": "inactive: 5.3%"}
{"molecule": "CCOCC(=O)Nc1nc2ccc(OCC)cc2s1", "Potency": "inconclusive [activator, full curve, poor fit]"}
{"molecule": "Clc1ccccc1OCc1nc(-c2ccncc2)no1", "Potency": "inconclusive [activator, partial curve, poor fit]"}
{"molecule": "COc1ccc(C(=O)N/N=C/c2ccc(OC(=O)c3cccs3)cc2)cc1", "Potency": "inconclusive [activator, partial curve, poor fit]"}
{"molecule": "CCOC(=O)c1sc(=NC(=O)c2ccccc2Br)n(C)c1C", "Potency": "inconclusive [activator, partial curve, poor fit]"}
{"molecule": "O=C(COC(=O)c1ccccc1O)NC12CC3CC(CC(C3)C1)C2", "Potency": "inconclusive [activator, partial curve, poor fit]"}
{"molecule": "CCSc1nnc(NC(=O)c2ccccc2C)s1", "activity change, positive = activation": "inactive: 27.2%"}
{"molecule": "COc1ccc2nc(C(C)O)[nH]c2c1", "note": "(centres undefined)", "activity change, positive = activation": "inactive: -2.31%"}
{"molecule": "COc1ccc(C(=O)Nc2nncs2)c(OC)c1", "Potency": "inconclusive [activator, full curve, poor fit]"}
{"molecule": "CC(/C=N/NC(=O)c1cccnc1)=C\\c1ccco1", "Potency": "inconclusive [activator, single point]"}
{"molecule": "COC(=O)c1nn(-c2ccccc2)c(Cl)c1/C=N/OCc1ccc(C)cc1", "activity change, positive = activation": "inactive: 2.37%"}
{"molecule": "CC(C)(C)NC(=O)NC(=O)COc1ccc(Br)cc1Br", "Potency": "inconclusive [activator, partial curve, poor fit]"}
{"molecule": "FC(F)Oc1ccc(NC(=S)NC2CCCCCCC2)cc1", "Potency": "inconclusive [activator, partial curve, poor fit]"}
{"molecule": "c1ccc(OCCSc2nnnn2C2CCCCC2)cc1", "Potency": "inconclusive [activator, partial curve, poor fit]"}
{"molecule": "Cc1ccc(OCCC(=O)OCC(=O)N2CC(=O)Nc3ccccc32)cc1", "Potency": "inconclusive [activator, single point]"}
{"molecule": "O=C(NCc1ccccc1)c1ccc2ccccc2n1", "Potency": "inconclusive [activator, single point]"}
{"molecule": "Cc1ccc(Nc2nc(N/N=C/c3c[nH]c4ccccc34)nc(N3CCOCC3)n2)cc1", "Potency": "inconclusive [activator, partial curve, poor fit]"}
{"molecule": "O=c1c2cc(-c3ccccc3)sc2ncn1/N=C/c1ccco1", "Potency": "inconclusive [activator, partial curve, poor fit]"}
{"molecule": "O=C(N/N=C/c1ccc[nH]1)c1ccccc1OCc1ccccc1Cl", "activity change, positive = activation": "inactive: -2.28%"}
{"molecule": "O=C(O)c1cccc([N+](=O)[O-])c1C(=O)Nc1nc2ccccc2s1", "Potency": "inconclusive [activator, single point]"}
{"molecule": "CC1CCCN(C(=O)COC(=O)CNC(=O)c2sc3ccccc3c2Cl)C1", "note": "(centres undefined)", "activity change, positive = activation": "inactive: -0.159%"}
{"molecule": "O=C(Nc1cccc(C(F)(F)F)c1)c1ccc(Cn2cc(Br)cn2)o1", "activity change, positive = activation": "inactive: -7.61%"}
{"molecule": "CC(C)c1ccc(NC(=S)NN2CCOCC2)cc1", "Potency": "inconclusive [activator, partial curve, poor fit]"}
{"molecule": "COCCn1c(C)cc(C(=O)COC(=O)CCN2C(=O)c3ccccc3C2=O)c1C", "activity change, positive = activation": "inactive: 2.66%"}
{"molecule": "O=C(COC(=O)c1ccccc1Cl)NC1CCCCCC1", "Potency": "inconclusive [activator, partial curve, poor fit]"}
{"molecule": "Cc1ccc(-c2noc(CN3CCN(C(c4ccccc4)c4ccccc4)CC3)n2)cc1", "Potency": "inconclusive [activator, full curve, poor fit]"}
{"molecule": "CCOc1ccc(/C=C2\\SC(=S)N(CCC(=O)O)C2=O)cc1", "activity change, positive = activation": "inactive: -13.4%"}
{"molecule": "CCOC(=O)c1sc2nc(C)nc(NCc3ccc(Cl)cc3)c2c1C", "activity change, positive = activation": "inactive: -3.57%"}
{"molecule": "COc1ccc(C(CNC(=O)c2ccc(OCc3ccccc3)cc2)N2CCOCC2)cc1", "note": "(centres undefined)", "activity change, positive = activation": "inactive: 0.468%"}
{"molecule": "Cn1c(=O)c(Oc2ccc(F)cc2)c(O)c2ccccc21", "activity change, positive = activation": "inactive: -11.1%"}
{"molecule": "COc1ccc(C(Nc2cc(C)ccn2)c2ccc3ccc(C)nc3c2O)cc1", "note": "(centres undefined)", "activity change, positive = activation": "inactive: 5.6%"}
{"molecule": "Cc1ccc(C(=O)Nc2ccccc2C(=O)NC(Cc2ccccc2)C(=O)O)cc1", "note": "(centres undefined)", "activity change, positive = activation": "inactive: 4.25%"}
{"molecule": "O=C(Nc1nc(-c2ccccn2)cs1)c1cc(S(=O)(=O)N2CCOCC2)ccc1F", "Potency": "inconclusive [activator, full curve]"}
{"molecule": "COC(=O)Cc1ccc2c3ccccc3n(C)c2c1", "Potency": "inconclusive [activator, partial curve, poor fit]"}
{"molecule": "COC(=O)c1sc(S(=O)(=O)NC(Cc2ccccc2)C(=O)O)c(C(=O)OC)c1C", "note": "(centres undefined)", "activity change, positive = activation": "inactive: 11.4%"}
{"molecule": "COCc1cc(C)nc2oc(C(=O)c3ccccc3)c(N)c12", "activity change, positive = activation": "inactive: 2.46%"}
{"molecule": "O=C(O)c1cc(Cl)c2ccccc2c1O", "activity change, positive = activation": "inactive: 8.71%"}
{"molecule": "CC(C)N(C(=O)[C@H]1C[C@H](CC(=O)NCc2cccc(C(F)(F)F)c2)C(=O)N2CCc3c([nH]c4ccc(Cl)cc34)[C@]12C)C(C)C", "activity change, positive = activation": "inactive: 8.84%"}
{"molecule": "COc1cccc(NC(=O)C2C3C=CC(O3)C2C(=O)NCc2cccnc2)c1", "note": "(centres undefined)", "Potency": "inconclusive [activator, partial curve, poor fit]"}
{"molecule": "Brc1c(CSc2nc3ccccc3s2)nc2ncccn12", "Potency": "inconclusive [activator, partial curve, poor fit]"}
{"molecule": "COc1ccc(-c2cc3ccccc3n2CC(O)CN2CCC(C)CC2)cc1", "note": "(centres undefined)", "activity change, positive = activation": "inactive: 6.59%"}
{"molecule": "Cc1ccc(NC(=S)N2CCN(c3ncccn3)CC2)cc1C", "Potency": "inconclusive [activator, single point]"}
{"molecule": "O=C(NCCOC(=O)c1c(F)cccc1Cl)c1c(F)cccc1Cl", "activity change, positive = activation": "inactive: -5.1%"}
{"molecule": "CCCc1cc(C(=O)Nc2ccc(CC)cc2)no1", "Potency": "inconclusive [activator, partial curve, poor fit]"}
{"molecule": "N/C(=N\\OC(=O)c1cccs1)c1cccnc1", "Potency": "inconclusive [activator, full curve, poor fit]"}
{"molecule": "COc1ccc(Cc2nc3c4c(ncn3n2)Oc2ccc3ccccc3c2C4c2ccc(OC)c(OC)c2)cc1", "note": "(centres undefined)", "activity change, positive = activation": "inactive: -3.58%"}
{"molecule": "Cc1cc(C)nc(NC(=O)c2cccs2)n1", "activity change, positive = activation": "inactive: 8.07%"}
{"molecule": "O=P1(O)C=C(c2ccccc2)OC(c2ccccc2)=C1", "Potency": "inconclusive [activator, partial curve, poor fit]"}
{"molecule": "O=C(/C=C/c1cccc(F)c1)OCC(=O)N1CCCC1", "Potency": "inconclusive [activator, partial curve, poor fit]"}
{"molecule": "Cc1cc(C)nc(S/C=C/C(=O)c2ccc(F)cc2)n1", "Potency": "inconclusive [activator, partial curve]"}
{"molecule": "CC1CCN(CCCn2c(=S)[nH]c3c(sc4ccc([N+](=O)[O-])cc43)c2=O)CC1", "activity change, positive = activation": "inactive: 4.22%"}
{"molecule": "O=C(Nc1cc(-c2ccccc2)nn1-c1c(Cl)cccc1Cl)c1ccc(F)cc1", "activity change, positive = activation": "inactive: -2.87%"}
{"molecule": "Clc1ccc(SCc2cc(-c3ccccc3)no2)cc1", "activity change, positive = activation": "inactive: 0.34%"}
{"molecule": "CCOC(=O)C(C#N)c1ccccn1", "note": "(centres undefined)", "Potency": "inconclusive [activator, partial curve, poor fit]"}
{"molecule": "CN(C)c1ccc([C@@H]2[C@@H]([N+](=O)[O-])[C@H]3C=Cc4ccccc4N3[C@H]2C(=O)c2ccc(Cl)cc2)cc1", "Potency": "inconclusive [activator, partial curve, poor fit]"}
{"molecule": "c1ccc(-n2ncc3c(NCCN4CCOCC4)ncnc32)cc1", "Potency": "inconclusive [activator, partial curve, poor fit]"}
{"molecule": "COc1ccc(C(=O)Nc2ccc(N3CCN(C)CC3)cc2)cc1OC", "Potency": "inconclusive [activator, partial curve, poor fit]"}
{"molecule": "COc1ccc(S(=O)(=O)N2CCN(C(=O)c3cc4c(s3)CCC4)CC2)cc1", "activity change, positive = activation": "inactive: -3.19%"}
{"molecule": "O=C(Nc1nc2c(s1)CCCC2)c1ccc(Br)s1", "Potency": "inconclusive [activator, full curve, poor fit]"}
{"molecule": "N#Cc1nc(-c2ccccc2)oc1NCc1ccco1", "activity change, positive = activation": "inactive: 7.12%"}
{"molecule": "COc1cccc(NC(=S)N/N=C2/CCCCc3ccccc32)c1", "Potency": "inconclusive [activator, full curve]"}
{"molecule": "Cc1c(C=C2C(=O)c3ccccc3C2=O)cc(C#N)n1C", "activity change, positive = activation": "inactive: -2.51%"}
{"molecule": "c1ccc(COc2ccc(OCCN3CCCCC3)cc2)cc1", "Potency": "inconclusive [activator, partial curve, poor fit]"}
{"molecule": "CCN(CC)S(=O)(=O)c1cccc(-c2cn3cc(C)ccc3n2)c1", "Potency": "inconclusive [activator, partial curve, poor fit]"}
{"molecule": "COCCCNC(=O)Cc1coc2ccc3ccccc3c12", "activity change, positive = activation": "inactive: -2.75%"}
{"molecule": "CC(C)(C)c1ccc(-c2noc(CCC(=O)N3CCOCC3)n2)cc1", "activity change, positive = activation": "inactive: 9.41%"}
{"molecule": "Cc1c(CCC(=O)N2CCC[C@H]2C(=O)O)c(=O)oc2c(C)c3oc4c(c3cc12)CCCC4", "activity change, positive = activation": "inactive: -4.19%"}
{"molecule": "CCc1cc2c(CN3CCN(CCO)CC3)cc(=O)oc2cc1O", "activity change, positive = activation": "inactive: 6.32%"}
{"molecule": "Cc1ccc(-c2nnc(Nc3ccc(C(=O)N(C)C)cc3)c3ccccc23)cc1S(=O)(=O)NC(C)(C)CO", "activity change, positive = activation": "inactive: -2.09%"}
{"molecule": "Cc1ccc(C)c(C(C)NC(=O)C2CC=CCC2C(=O)O)c1", "note": "(centres undefined)", "Potency": "inconclusive [activator, single point]"}
{"molecule": "CC1(C)COCN1S(=O)(=O)c1ccc(C(=O)Nc2nnc(-c3ccc(Cl)s3)o2)cc1", "Potency": "inconclusive [activator, single point]"}
{"molecule": "S=c1sc2c(N3CCOCC3)ncnc2n1-c1ccccc1", "Potency": "inconclusive [activator, partial curve, poor fit]"}
{"molecule": "OC(COc1ccc(Br)cc1)CN1CCC(Cc2ccccc2)CC1", "note": "(centres undefined)", "activity change, positive = activation": "inactive: -6.91%"}
